Read-outs that look alike come from different tables or passages of the source.
Tested on: PC3 (human prostate carcinoma cell line) cells
Experiment: cells
[1] = PC-3, 72 h, read-out: EC50 PC3 [nM]

CCc1ncnc(-c2ccc(C(=O)N3CCN(C)CC3)c(F)c2)c1C#Cc1ccc(N)nc1C [Example D-21]
EC50 (read-out: EC50 PC3): 27 nM

CCc1ncnc(-c2ccc(C(=O)NC3CC(N4CCC(N5CCCC5)CC4)C3)c(F)c2)c1C#Cc1ccc(N)nc1 [Example D-208]
EC50 (read-out: EC50 PC3): 118 nM

CCc1ncnc(-c2ccc(C(=O)N3CCOCC3)c(F)c2)c1C#Cc1ccc(N)nc1 [Example D-239]
EC50 (read-out: EC50 PC3): 53 nM

CCc1ncnc(-c2ccc(C(=O)N(C)CCOC)c(F)c2)c1C#Cc1ccc(N)nc1 [Example D-7]
EC50 (read-out: EC50 PC3): 24 nM

CCc1ncnc(-c2ccc(C(=O)N(C)O)c(Cl)c2)c1C#Cc1ccc(N)nc1 [Example D-153]
EC50 (read-out: EC50 PC3): 55 nM

CCc1ncnc(-c2ccc(C(=O)NC3CCN(C4CCN(C)CC4)C3)c(F)c2)c1C#Cc1ccc(N)nc1 [Example D-210]
EC50 (read-out: EC50 PC3): 172 nM

CCc1ncnc(-c2ccc(C(=O)N3CCC(CCO)CC3)c(F)c2)c1C#Cc1ccc(N)nc1 [Example D-104]
EC50 (read-out: EC50 PC3): 62 nM

CCc1ncnc(-c2ccc(F)c(C(=O)N3CCOCC3)c2)c1C#Cc1ccc(N)nc1 [Example C-46]
EC50 [1]: 228 nM

CCc1ncnc(-c2ccc(C(=O)N3CCN(c4ccncc4)CC3)c(Cl)c2)c1C#Cc1ccc(N)nc1 [Example D-155]
EC50 (read-out: EC50 PC3): 64 nM

CNC(=O)c1cc(-c2ncnc(C)c2C#Cc2ccc(N)nc2)ccc1F [Example C-43]
EC50 [1]: 463 nM

CCc1ncnc(-c2ccc(C(=O)NC3CCN(C)C3)c(F)c2)c1C#Cc1ccc(N)nc1 [Example D-199]
EC50 (read-out: EC50 PC3): 127 nM

CCc1ncnc(-c2ccc(C(=O)N3CCC(O)(C(F)(F)F)CC3)c(F)c2)c1C#Cc1ccc(N)nc1 [Example D-123]
EC50 (read-out: EC50 PC3): 76 nM

Cc1ncnc(-c2ccc(F)c(C(=O)N(C)C)c2)c1C#Cc1ccc(N)nc1 [Example C-9]
EC50 [1]: 275 nM

CCc1ncnc(-c2ccc(C(=O)N3CCN(CC4CCCN(C)C4)CC3)c(F)c2)c1C#Cc1ccc(N)nc1 [Example D-114]
EC50 (read-out: EC50 PC3): 39 nM

CCc1ncnc(-c2ccc(C(=O)NCC(O)CN(C)C)c(F)c2)c1C#Cc1ccc(N)nc1 [Example D-196]
EC50 (read-out: EC50 PC3): 144 nM

CCc1ncnc(-c2ccc(C(=O)N(C)CCCO)c(F)c2)c1C#Cc1ccc(N)nc1 [Example D-4]
EC50 (read-out: EC50 PC3): 33 nM

Cc1ncnc(-c2ccccc2)c1C#Cc1ccc(N)nc1 [Example C-7]
EC50 [1]: 163 nM

CCc1ncnc(-c2ccc(C(=O)N3CCN(CCOC)CC3)c(F)c2)c1C#Cc1ccc(N)nc1 [Example D-95]
EC50 (read-out: EC50 PC3): 40 nM

CCc1ncnc(-c2ccc(C(=O)N3CCC(O)(C(C)C)CC3)c(F)c2)c1C#Cc1ccc(N)nc1 [Example D-124]
EC50 (read-out: EC50 PC3): 43 nM

CCc1ncnc(-c2ccc(C(=O)N3CCN(CCO)CC3)c(OC)c2)c1C#Cc1ccc(N)nc1 [Example D-57]
EC50 (read-out: EC50 PC3): 357 nM

CCc1ncnc(-c2ccc(C(=O)N3CCN(CC(F)(F)F)CC3)c(F)c2)c1C#Cc1ccc(N)nc1 [Example D-69]
EC50 (read-out: EC50 PC3): 51 nM

CCc1ncnc(-c2ccc(C(=O)NC3CCN(CCOC)CC3)c(F)c2)c1C#Cc1ccc(N)nc1 [Example D-201]
EC50 (read-out: EC50 PC3): 90 nM

CCc1ncnc(-c2ccc(C(=O)N3CCN(Cc4ccccc4)CC3)c(F)c2)c1C#Cc1ccc(N)nc1C [Example D-24]
EC50 (read-out: EC50 PC3): 52 nM

CCc1ncnc(-c2ccc(N3CCOCC3)nc2)c1C#Cc1ccc(N)nc1 [Example C-32]
EC50 [1]: 95 nM

COc1ccc(-c2ncnc(C)c2C#Cc2ccc(N)nc2)cn1 [Example C-23]
EC50 [1]: 245 nM

CCc1ncnc(-c2ccc(C(=O)N3CCN(C(C)=O)CC3)c(Cl)c2)c1C#Cc1ccc(N)nc1 [Example D-46]
EC50 (read-out: EC50 PC3): 74 nM

CCc1ncnc(-c2ccc(C(=O)N3CCC(N4CCC(C)CC4)C3)c(F)c2)c1C#Cc1ccc(N)nc1 [Example D-108]
EC50 (read-out: EC50 PC3): 41 nM

CCc1ncnc(-c2ccc(C(=O)N(C)C)cc2)c1C#Cc1ccc(C)nc1 [Example C-18]
EC50 [1]: 612 nM

Cc1ncnc(-c2ccc(C(=O)N3CCCO3)c(F)c2)c1C#Cc1ccc(N)nc1 [Example D-226]
EC50 (read-out: EC50 PC3): 49 nM

CCc1ncnc(-c2ccc(C(=O)N3CCN4CCCCC4C3)c(F)c2)c1C#Cc1ccc(N)nc1 [Example D-87]
EC50 (read-out: EC50 PC3): 54 nM

CCc1ncnc(-c2ccc(C(=O)N3CCC(N4CCCCCC4)CC3)c(OC)c2)c1C#Cc1ccc(N)nc1 [Example D-176]
EC50 (read-out: EC50 PC3): 384 nM

CCc1ncnc(-c2ccc(C(=O)N3CCN(C)C(C)(C)C3)c(F)c2)c1C#Cc1ccc(N)nc1 [Example D-127]
EC50 (read-out: EC50 PC3): 80 nM

CCc1ncnc(-c2ccc(C(=O)N3CCC(O)CC3)c(F)c2)c1C#Cc1ccc(N)nc1 [Example D-71]
EC50 (read-out: EC50 PC3): 32 nM

CCc1ncnc(-c2ccc(C(=O)N(C)CCOC)c(Cl)c2)c1C#Cc1ccc(N)nc1 [Example D-35]
EC50 (read-out: EC50 PC3): 35 nM

CCc1ncnc(-c2ccc(C(=O)N3CCN(C(C)CC)CC3)c(F)c2)c1C#Cc1ccc(N)nc1 [Example D-129]
EC50 (read-out: EC50 PC3): 30 nM

CCc1ncnc(-c2ccc(C(=O)NCCOC)c(Cl)c2)c1C#Cc1ccc(N)nc1 [Example D-33]
EC50 (read-out: EC50 PC3): 45 nM

Cc1ncnc(-c2ccc(C(=O)N(C)C)cc2)c1C#Cc1ccc(N)nc1 [Example C-6]
EC50 [1]: 77 nM

CCc1ncnc(-c2ccc(C(=O)N3CCN(C4CCN(C)CC4)CC3)c(F)c2)c1C#Cc1ccc(N)nc1 [Example D-64]
EC50 (read-out: EC50 PC3): 71 nM

CCc1ncnc(-c2ccc(C(=O)N3CCC[C@@H]3CO)c(F)c2)c1C#Cc1ccc(N)nc1 [Example D-131]
EC50 (read-out: EC50 PC3): 57 nM

CCc1ncnc(-c2ccc(C(=O)N3CCN4CCCCC4C3)c(OC)c2)c1C#Cc1ccc(N)nc1 [Example D-175]
EC50 (read-out: EC50 PC3): 95 nM

CCc1ncnc(-c2ccc(C(=O)N3CC[C@@H](O)C3)c(Cl)c2)c1C#Cc1ccc(N)nc1 [Example D-146]
EC50 (read-out: EC50 PC3): 79 nM

CCc1ncnc(-c2ccc(C(=O)N3CCCCO3)cc2)c1C#Cc1ccc(N)nc1 [Example D-223]
EC50 (read-out: EC50 PC3): 85 nM

CCc1ncnc(-c2ccc(C(=O)NCC3CCN(C)C3)c(F)c2)c1C#Cc1ccc(N)nc1 [Example D-75]
EC50 (read-out: EC50 PC3): 147 nM

CCc1ncnc(-c2ccc(C(=O)N3CCN(C(C)(C)C)CC3)c(OC)c2)c1C#Cc1ccc(N)nc1 [Example D-48]
EC50 (read-out: EC50 PC3): 58 nM

CCc1ncnc(-c2ccc(C(=O)N(C)CCO)c(Cl)c2)c1C#Cc1ccc(N)nc1 [Example D-34]
EC50 (read-out: EC50 PC3): 36 nM

CCc1ncnc(-c2ccc(C(=O)N3CCN(C4CCCC4)CC3)c(F)c2)c1C#Cc1ccc(N)nc1 [Example D-96]
EC50 (read-out: EC50 PC3): 63 nM

CCc1ncnc(-c2ccc(C(=O)N3CCC(N4CCOCC4)CC3)c(F)c2)c1C#Cc1ccc(N)nc1 [Example D-63]
EC50 (read-out: EC50 PC3): 30 nM

CCc1ncnc(-c2ccc(C(=O)N3CCN(CC4CCCCC4)CC3)c(F)c2)c1C#Cc1ccc(N)nc1 [Example D-94]
EC50 (read-out: EC50 PC3): 602 nM

CCc1ncnc(-c2ccc(C(=O)N3CCOC(C)(C)C3)c(F)c2)c1C#Cc1ccc(N)nc1 [Example D-120]
EC50 (read-out: EC50 PC3): 199 nM

CCN(CC)C(=O)c1cccc(-c2ncnc(C)c2C#Cc2ccc(N)nc2)c1 [Example C-36]
EC50 [1]: 590 nM

CCc1ncnc(-c2ccc(C(=O)N3CC(O)CO3)c(F)c2)c1C#Cc1ccc(N)nc1 [Example D-220]
EC50 (read-out: EC50 PC3): 65 nM

CCc1cc(-c2ncnc(CC)c2C#Cc2ccc(N)nc2)ccn1 [Example C-3]
EC50 [1]: 78 nM

CCc1ncnc(-c2ccc(C(C)(C)C#N)cc2)c1C#Cc1ccc(N)nc1 [Example C-1]
EC50 [1]: 49 nM

Cc1cc(-c2ncnc(C)c2C#Cc2ccc(N)nc2)ccn1 [Example C-20]
EC50 [1]: 191 nM

CCc1ncnc(-c2ccc(C(=O)NC3CCS(=O)(=O)C3)c(F)c2)c1C#Cc1ccc(N)nc1 [Example D-212]
EC50 (read-out: EC50 PC3): 75 nM

CCc1ncnc(-c2ccc(C(=O)N(C)C3CCN(C)CC3)c(F)c2)c1C#Cc1ccc(N)nc1 [Example D-3]
EC50 (read-out: EC50 PC3): 217 nM

CCc1ncnc(-c2ccc(Cl)c(C(=O)N(C)C)c2)c1C#Cc1ccc(N)nc1 [Example C-45, 4-[5-(6-amino-pyridin-3-ylethynyl)-6-methyl-pyrimidin-4-yl]-2-fluoro benzoic acid methyl ester]
EC50 [1]: 90 nM

CCc1ncnc(-c2ccc(C(=O)NCC3CCN(C)CC3)c(F)c2)c1C#Cc1ccc(N)nc1 [Example D-77]
EC50 (read-out: EC50 PC3): 80 nM

CCc1ncnc(-c2ccc(C(=O)N(C)CCN3CCCC3=O)c(F)c2)c1C#Cc1ccc(N)nc1 [Example D-119]
EC50 (read-out: EC50 PC3): 114 nM

CCc1ncnc(-c2ccc(C(=O)N3CCN(C4CCOCC4)CC3)c(F)c2)c1C#Cc1ccc(N)nc1 [Example D-84]
EC50 (read-out: EC50 PC3): 17 nM

CCc1ncnc(-c2ccc(C(=O)N3CCCC(O)C3)c(OC)c2)c1C#Cc1ccc(N)nc1 [Example D-164]
EC50 (read-out: EC50 PC3): 91 nM

CCc1ncnc(-c2ccc(C(=O)N3CCNC(=O)C3)c(OC)c2)c1C#Cc1ccc(N)nc1 [Example D-59]
EC50 (read-out: EC50 PC3): 248 nM

CCc1ncnc(-c2ccc(C(=O)N3CCN(C4CCS(=O)(=O)C4)CC3)c(F)c2)c1C#Cc1ccc(N)nc1C [Example D-17]
EC50 (read-out: EC50 PC3): 76 nM

CCc1ncnc(-c2ccc(C(=O)N3CCN(C)CC3)nc2)c1C#Cc1ccc(N)nc1 [Example D-240]
EC50 (read-out: EC50 PC3): 248 nM

CCc1ncnc(-c2ccc(C(=O)N3CCC(N(C)C)CC3)c(F)c2)c1C#Cc1ccc(N)nc1 [Example D-100]
EC50 (read-out: EC50 PC3): 44 nM

CCc1ncnc(-c2ccc(C(=O)N3CC[C@H](N(C)C)C3)c(F)c2)c1C#Cc1ccc(N)nc1 [Example D-237]
EC50 (read-out: EC50 PC3): 77 nM

CCc1ncnc(-c2ccc(C(=O)N3CCN(S(=O)(=O)CC)CC3)c(F)c2)c1C#Cc1ccc(N)nc1C [Example D-19]
EC50 (read-out: EC50 PC3): 30 nM

CCc1ncnc(-c2ccc(C(=O)N3CC[C@H](O)C3)c(F)c2)c1C#Cc1ccc(N)nc1 [Example D-203]
EC50 (read-out: EC50 PC3): 58 nM

CCc1ncnc(-c2cnc3ccccc3c2)c1C#Cc1ccc(N)nc1 [Example C-29]
EC50 [1]: 123 nM

Cc1ncnc(-c2ccc(N3CCCCC3)nc2)c1C#Cc1ccc(N)nc1 [Example C-25]
EC50 [1]: 407 nM

CCc1ncnc(-c2ccc(C(=O)N3CC[C@H](O)C3)c(Cl)c2)c1C#Cc1ccc(N)nc1 [Example D-145]
EC50 (read-out: EC50 PC3): 76 nM

CCc1ncnc(-c2ccc(C(=O)N3CCN(CC4CC4)CC3)c(Cl)c2)c1C#Cc1ccc(N)nc1 [Example D-136]
EC50 (read-out: EC50 PC3): 106 nM

CCc1ncnc(-c2ccc(C(=O)NCC3(C)COC3)c(Cl)c2)c1C#Cc1ccc(N)nc1 [Example D-159]
EC50 (read-out: EC50 PC3): 38 nM

Cc1ncnc(-c2cccc(C(=O)N3CCOCC3)c2)c1C#Cc1ccc(N)nc1 [Example C-37]
EC50 [1]: 644 nM

CCc1ncnc(-c2ccc(C(=O)N3CCN(C(C)C)CC3)c(Cl)c2)c1C#Cc1ccc(N)nc1 [Example D-42]
EC50 (read-out: EC50 PC3): 16 nM

CCc1ncnc(-c2ccc(OC)nc2)c1C#Cc1ccc(N)nc1 [Example C-30]
EC50 [1]: 178 nM

Source: patent publication US8633183B2 (priority 2010, dated 2014)
